Reference: PubChem BioAssay AID1645887 (National Center for Advancing Translational Sciences (NCATS), 2021)
“And” between values parts separate entries of the source, which are not always exact repeats. Equal entries are not always repeated. Out of some 16,000 compounds screened, about 40 (0.2%) were called active. About 1% were inconclusive and are not listed. The call rests on the fitted dose curve; in most records, active means well fitted activation curve with a large enough effect; inconclusive means small, poorly fitted or top-dose-only effect, or another doubt; inactive means no such curve, though single readings can be large or run the other way. Some of the results follow.

What follows are compounds tested against Rap guanine nucleotide exchange factor 4 (Homo sapiens) (UniProt Q8WZA2) (assay: Validation qHTS for agonist of cAMP-regulated guanine nucleotide exchange factor 4 (EPAC2)). Settings: EPAC2 Rap1B BODIPY-GDP exchange, fluorescence; activation: active compounds read high.
Chain of UniProt Q8WZA2 (Q8WZA2 whole entry, looked up): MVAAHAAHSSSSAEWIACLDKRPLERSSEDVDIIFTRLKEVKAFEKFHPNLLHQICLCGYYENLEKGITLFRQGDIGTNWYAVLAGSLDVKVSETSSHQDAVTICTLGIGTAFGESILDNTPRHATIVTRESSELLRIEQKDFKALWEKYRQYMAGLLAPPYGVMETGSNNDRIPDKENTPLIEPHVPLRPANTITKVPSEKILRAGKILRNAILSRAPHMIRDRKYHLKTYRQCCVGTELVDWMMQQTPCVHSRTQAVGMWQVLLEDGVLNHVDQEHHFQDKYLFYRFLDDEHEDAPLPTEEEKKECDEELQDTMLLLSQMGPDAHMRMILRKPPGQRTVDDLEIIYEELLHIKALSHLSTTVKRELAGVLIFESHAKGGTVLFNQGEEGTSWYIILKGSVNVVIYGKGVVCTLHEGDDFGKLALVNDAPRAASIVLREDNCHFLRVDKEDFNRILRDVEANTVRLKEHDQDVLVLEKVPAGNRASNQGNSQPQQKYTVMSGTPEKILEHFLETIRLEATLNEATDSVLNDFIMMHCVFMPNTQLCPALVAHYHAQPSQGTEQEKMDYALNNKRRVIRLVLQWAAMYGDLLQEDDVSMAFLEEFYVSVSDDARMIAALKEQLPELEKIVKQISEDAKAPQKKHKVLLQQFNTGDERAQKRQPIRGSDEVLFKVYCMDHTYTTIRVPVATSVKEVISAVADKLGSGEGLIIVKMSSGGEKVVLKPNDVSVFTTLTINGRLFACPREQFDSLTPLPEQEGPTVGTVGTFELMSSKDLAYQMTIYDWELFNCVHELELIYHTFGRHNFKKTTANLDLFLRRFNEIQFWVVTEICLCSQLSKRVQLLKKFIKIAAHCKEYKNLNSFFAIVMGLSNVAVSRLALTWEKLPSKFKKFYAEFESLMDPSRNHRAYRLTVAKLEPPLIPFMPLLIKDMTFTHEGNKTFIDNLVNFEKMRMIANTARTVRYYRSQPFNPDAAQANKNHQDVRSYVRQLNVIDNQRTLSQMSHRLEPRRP
Summary of the method: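 Fluorescent exchange assay: 100 nM EPAC2 with 250 nM RAP1B-BODIPY-GDP and 50 uM GDP; compound added, 5 min at room temperature, then read (ex 480/em 540 nm) every 5 min for 30 min. Normalized to 6.5 mM cAMP agonist control.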
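Further: exchange makes BODIPY-GDP fluorescence drop when released from Rap1B; series mostly up to about 150 µM.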
On the % scale 0 is the no-effect control and ±100 the full control effect.

activation, inactive:
CC(C)NC(=O)N1CCCC2(CCN(C(=O)c3cc(C(F)(F)F)cc(C(F)(F)F)c3)CC2)C1 -35.6%, O=C1CCC[C@@H]2C[C@@]3(C[C@@H]4CCN1[C@H]24)Nc1cc(Cl)ccc1NC3=NCc1ccccc1 -12%, C[C@@H]1CCC2[C@](C)(CO)C(O)CC[C@@]2(C)[C@@]12CC[C@](CO)(CCO)O2 (some centres not stated) -2.29%, COc1cc2c(cc1OC)C1C(=O)c3c(cc4c(c3O)C=CC(C)(C)O4)OC1CO2 (configuration not stated) -5.22%, Cc1cnc(CNc2nc(-c3ccc4c(c3)OCO4)nc3ccccc23)cn1 -1.22%, Cn1cccc1C(=O)N1CCC2(CC1)CN(C(=O)Nc1ccccc1)C2 -6.8%, COCCn1c(=O)c(-c2ccc(OC)cc2)nc2cnc(N3CCOCC3)nc21 -5.39%, CCOC(=O)C1=C[C@@]2(CC)CCCN3CCc4c(n1c1ccccc41)[C@H]32 -0.763%, NCCC(=O)c1ccccc1N 0.988%, CC(C)(C)NCC(O)c1ccc(O)c(CO)n1 (configuration not stated) -12.7%, C[C@H](/C=C/[C@H](C)C(C)(C)O)[C@H]1CC[C@H]2/C(=C/C=C3C[C@@H](O)C[C@H](O)C3)CCC[C@]12C -4.1%, COCC(=O)N1CCC2(CCN(Cc3ccccc3OC)CC2)CC1 -4.71%, CCC(C)(C)C(=O)OC1CC(C)C=C2C=CC(C)C(CCC3CC(O)CC(=O)O3)C21 (configuration not stated) -11.4%, CC1(C)[C@@H](O)CC[C@]2(C)[C@H]3C(=O)C=C4[C@@H]5C[C@@](C)(C(=O)O)CC[C@]5(C)CC[C@@]4(C)[C@]3(C)CC[C@@H]12 -4.71% and -30.1%, COC(=O)[C@@H](N)Cc1ccc(O)c(O)c1 -4.17% and -23.9%, COc1ccc(C(=O)N2CCC3(CC2)CN(c2ccc(-c4ccccc4)cc2)C3)cc1 3.83%, COc1ccc2c(c1)c(CC(=O)O)c(C)n2Cc1ccc(Cl)cc1 -65.1%, C[C@]12CCC(=O)C=C1C=C[C@@H]1[C@@H]2CC[C@@]2(C)[C@H]1CC[C@@]21CCC(=O)O1 -3.81%, O=S1(=O)CCO[C@H]2CCCC[C@@H]2N1Cc1cccc(F)c1 -9.12%, COC(=O)N1CCC2(CC1)CN(c1ccncc1)C2 -13%, O=C(O)c1ccc(NC(=O)[C@H](Cc2ccc(O)cc2)NC(=O)c2ccccc2)cc1 -2.26%, CC(=O)C1CCC2C3CC=C4CC(O)CC[C@@]4(C)C3CC[C@]12C (some centres not stated) -8.44%
